The subject of this data set is ATP. In words: switch fluorescence ratio, 500 uM ATP over buffer (Cy3 cluster intensity, sum of 5 cycles each) (fold (ratio)); higher = stronger signal-on switching upon ATP binding; sequences stand for … in TCGTCGGCAGCGTCAGATGTGTATAAGAGACAGTTTTTTTTTTTTTTTTTTTTTTTTT…TC. The note with it: aptamer strand: ATP DNA aptamer (quencher-CACCTGGGGGAGTATTGCGGAGGAAGG + anchor), 100 nM annealed; ATP concentration: 500 uM; one replicate. The essentials: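 Cy3-labelled switching-strand clusters on a modified Illumina MiSeq flow-cell were annealed to 100 nM quencher-labelled ATP aptamer, imaged in selection buffer, then imaged after 15 min with 500 uM ATP at 22 °C. Five buffer/ATP cycles ran, with NaOH stripping and re-annealing between them. The fluorescence ratio is summed target-cycle over summed buffer-cycle Cy3 intensity per cluster, averaged per switch-domain sequence. Clusters outside 100-1000 RFU were excluded.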

Sequences with one replicate were seen in a single cluster, so their values are uncertain.
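Further: ATP exposure 15 min at 22 °C before imaging.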

In the case of CACGTGAACG, the switch fluorescence ratio stood at 0.978. Take TAGGGGA: the switch fluorescence ratio turned out to be 1.03. With ACGCGCAGCT, the switch fluorescence ratio came to 0.957. Consider CACGTGGCG, for which the switch fluorescence ratio came to 1.03. Take CCACAGCCTA: the switch fluorescence ratio was 1.45. As to CGAATAGAAA, the switch fluorescence ratio was determined as 1.01. For the sequence TGATAGCAGC, the switch fluorescence ratio turned out to be 1.05.

As to CCACAAACAT, the switch fluorescence ratio stood at 1.17. In the case of CATCCTGCCC, the switch fluorescence ratio was found to be 1.52. As to AATGTATTCA, the switch fluorescence ratio was determined as 1.01. To GCCTCGGGAT belongs 1; to CGGTTAGAAT, 0.952. As to CGCTAAGGTA, the switch fluorescence ratio was 0.996. As for GCCGATAAGG, the switch fluorescence ratio was found to be 0.979. Regarding TAGAGGCAAC, the switch fluorescence ratio is 0.996. Under AACCGAGGAC stands 1.07; under CGACGGAGGG, 1.04. For TCAAAAGCAG, the switch fluorescence ratio was determined as 1.62. On to TCAGTCGGGT, for which the switch fluorescence ratio was found to be 0.994. In the case of GGCGCAAGTG, the switch fluorescence ratio was found to be 0.993.

Take AAACGTCGC: the switch fluorescence ratio is 0.987. For TGAGTAAGGC, the switch fluorescence ratio was 0.932. In the case of TCGTGCTGTA, the switch fluorescence ratio is 0.972. In the case of CGTATCGTAG, the switch fluorescence ratio came to 0.956.

Consider CATATTGTTG, for which the switch fluorescence ratio worked out at 1.01. As to CTTTGGCTGT, the switch fluorescence ratio stood at 0.951.

On to ACATTATGAA, for which the switch fluorescence ratio worked out at 1.03. Under TCTTTGCCTA stands 0.998; under CATCCAGTGT, 1.33; under TCTCACTAAC, 1.16. Turning to AAAGCCTCTA, the switch fluorescence ratio worked out at 0.987. For the sequence ATCACGCTTG, the switch fluorescence ratio was 1.01. As to GAGAGCACAG, the switch fluorescence ratio was found to be 1. As to AGCAGAACAG, the switch fluorescence ratio worked out at 0.995. As for ATTGGGGTTA, the switch fluorescence ratio turned out to be 1.01.

With TAATAGGCG, the switch fluorescence ratio is 0.927. Under CACCGCCTGT stands 1.27. Turning to AACGGTAGAT, the switch fluorescence ratio is 1.02.

With CGGCTAGGTG, the switch fluorescence ratio came to 1.95.

As for CGTAAGATTT, the switch fluorescence ratio is 0.994.

As for AGTTGTACTG, the switch fluorescence ratio was 1.04.

ACAGCCCCAT: the switch fluorescence ratio was determined as 1. Take AATTAATAGA: the switch fluorescence ratio turned out to be 0.973. Regarding GTCAATGTTA, the switch fluorescence ratio turned out to be 0.973. For the sequence CGTTACCGTA, the switch fluorescence ratio was determined as 1.03.

With TTAAGCC, the switch fluorescence ratio is 1.09. To ATGTGATCGA belongs 0.961. As for TTAGATCGCG, the switch fluorescence ratio is 1.02.

Take ACCTACTTCT: the switch fluorescence ratio is 1.22. On to GATAGTGTTC, for which the switch fluorescence ratio is 1.02. To GGCGAAAGAC belongs 1.26; to GCAGCAGGCT, 0.998; to ACCGGATGCC, 1.04. In the case of CCGTTTTACA, the switch fluorescence ratio worked out at 1.13. Consider TTAGGACTTC, for which the switch fluorescence ratio was determined as 1.01. As to ATACAGGAGA, the switch fluorescence ratio was 1.02. To CGGTGGGTCA belongs 0.97; to ACTAATTGCG, 0.974. ATAAGAGAAA: the switch fluorescence ratio stood at 1.04. On to CGTGAACGC, for which the switch fluorescence ratio came out at 1.01. Turning to TCCACTCTCC, the switch fluorescence ratio amounted to 1.2.

Consider CTATGTTTGT, for which the switch fluorescence ratio was 0.983. With GGTAACCCGT, the switch fluorescence ratio was 0.989. For TGGAGCTGCG, the switch fluorescence ratio turned out to be 1.04. CGAGAGCGCA: the switch fluorescence ratio is 0.936.

For the sequence GAGAGCCGCT, the switch fluorescence ratio was 1.01. As to GGGACTAACT, the switch fluorescence ratio came out at 1.07.

For the origin of these results see the supplement of paper PMC10126150.
